Measured values: article PMC4336329 (PLoS ONE, 2015)
The whole screen tested about 310,000 compounds, of which about 14,000 (4.5%) showed an effect of 50% or more. The effect is printed as a negative number. The list shows a part of the results.

The molecules below were run against human ether-à-go-go-related gene (hERG) potassium channel (human, UniProt Q12809) (assay: primary screen, population patch clamp on CHO cells stably expressing hERG).
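Also: peak tail current of the secondary pulse compared with the same well before compound.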

human ether-à-go-go-related gene (hERG) potassium channel, sequence (Q12809 whole entry, looked up): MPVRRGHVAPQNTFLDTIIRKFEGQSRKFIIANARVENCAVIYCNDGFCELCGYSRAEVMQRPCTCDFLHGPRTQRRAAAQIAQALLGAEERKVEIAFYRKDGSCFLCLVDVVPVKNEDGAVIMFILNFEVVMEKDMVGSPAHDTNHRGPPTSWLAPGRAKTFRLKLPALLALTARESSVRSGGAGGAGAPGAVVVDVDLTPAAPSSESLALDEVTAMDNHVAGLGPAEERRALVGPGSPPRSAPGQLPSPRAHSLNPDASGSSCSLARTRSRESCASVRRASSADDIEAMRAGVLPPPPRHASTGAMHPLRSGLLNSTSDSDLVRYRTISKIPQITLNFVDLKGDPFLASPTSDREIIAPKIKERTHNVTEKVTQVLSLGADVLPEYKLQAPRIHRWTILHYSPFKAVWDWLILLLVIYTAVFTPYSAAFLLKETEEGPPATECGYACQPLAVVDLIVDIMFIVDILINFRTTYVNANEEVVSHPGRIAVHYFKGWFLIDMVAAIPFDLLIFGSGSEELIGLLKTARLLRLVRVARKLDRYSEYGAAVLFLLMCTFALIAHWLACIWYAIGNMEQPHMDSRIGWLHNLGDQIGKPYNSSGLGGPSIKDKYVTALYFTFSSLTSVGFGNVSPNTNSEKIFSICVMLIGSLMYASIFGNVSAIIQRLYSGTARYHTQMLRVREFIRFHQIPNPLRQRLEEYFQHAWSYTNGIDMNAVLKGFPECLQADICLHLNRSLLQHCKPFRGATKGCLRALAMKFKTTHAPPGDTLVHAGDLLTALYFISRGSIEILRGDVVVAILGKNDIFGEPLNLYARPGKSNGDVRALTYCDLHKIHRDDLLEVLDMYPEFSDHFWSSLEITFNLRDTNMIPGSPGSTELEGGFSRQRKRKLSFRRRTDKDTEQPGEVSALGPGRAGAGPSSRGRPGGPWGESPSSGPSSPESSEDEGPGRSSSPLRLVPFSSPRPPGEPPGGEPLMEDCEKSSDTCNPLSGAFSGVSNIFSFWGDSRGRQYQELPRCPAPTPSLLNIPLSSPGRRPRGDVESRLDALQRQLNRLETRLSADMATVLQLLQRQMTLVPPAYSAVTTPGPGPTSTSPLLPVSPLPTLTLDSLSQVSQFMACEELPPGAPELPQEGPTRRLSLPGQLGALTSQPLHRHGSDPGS

| Structure (SMILES) | hERG current change (%, negative = inhibition) at 10uM [%] |
| --- | --- |
| COc1cccc(NC(=O)NC2CC(=O)N(c3ccc4c(c3)OCCO4)C2)c1 (stereo not drawn) | -11.2 |
| O=C(Nc1cccc(Cl)c1N1CCCCC1)c1ccc(N2CCOCC2)c([N+](=O)[O-])c1 | -13.2 |
| Cc1ccc(-c2cc(-c3ccccc3)c(C#N)c(Br)n2)cc1 | -4.18 |
| CCN(CC)CCN1C(=O)C(O)=C(C(=O)c2cc3cccc(OC)c3o2)C1c1ccc(F)cc1 (stereo not drawn) | 3.13 |
| CC(=O)c1ccccc1OCc1ccc(S(=O)(=O)Cc2ccccc2)cc1 | -26.6 |
| CCOCc1nnc(NS(C)(=O)=O)s1 | 5.71 |
| COc1cccc(-c2nn(Cc3ccccc3)cc2C(=O)O)c1 | 13.1 |
| COC(=O)N/N=C/c1cc([N+](=O)[O-])cc(Br)c1O | 38.8 |
| COc1ccc(N(CC(=O)Nc2ccccc2C(=O)N2CCCC2)S(=O)(=O)c2ccccc2)cc1 | -51.8 |
| COc1ccc(N2CCN(c3nccs3)CC2)cc1 | 4.77 |
| CCC(C)[C@H](NC(=O)[C@@H]1CSC2c3ccccc3C(=O)N21)C(=O)NCc1ccncc1 (stereo partly drawn) | -6.39 |
| O=C(NNC(=O)c1ccc(F)c(S(=O)(=O)N2CCOCC2)c1)c1ccc([N+](=O)[O-])cc1 | -45 |
| O=C(COC(=O)C1CCC1)Nc1ncc(Cl)cc1Cl | -9.55 |
| O=C(Nc1cc(C(F)(F)F)ccc1-n1cncn1)c1ccc([N+](=O)[O-])o1 | -23 |
| Cc1ccccc1Nc1nc(N)c2ccccc2n1.Cl | -7.58 |
| CC(CCc1ccc(O)cc1)N(C)CCc1ccccc1 (stereo not drawn) | -62.2 |
| O=C(CN1C(=O)NC2(CCCC2)C1=O)N1CCN(S(=O)(=O)c2ccccc2)CC1 | 28.5 |
| O=[N+]([O-])c1ccc(OCCn2cnc3ccccc32)cc1 | -68.1 |
| CC(C)CN(C(=O)CCCOc1ccc(Cl)cc1Cl)c1c(N)n(Cc2ccccc2)c(=O)[nH]c1=O | -12.5 |
| CCCN(CC(=O)Nc1cc(C)on1)S(=O)(=O)c1cccc(C(F)(F)F)c1 | 14 |
| COc1cccc(/C=N/Nc2nnc3c(n2)[nH]c2ccccc23)c1OC | 11.8 |
| Cc1ccc(C)c(NC(=O)CN(C)C(=O)c2cccc(N3C(=O)CCC3=O)c2)c1 | -0.451 |

| Structure (SMILES) | hERG current change (%, negative = inhibition) at 10uM [%] |
| --- | --- |
| CCOC(=O)C1CCCN(C(=S)NC2CCCCC2)C1 (stereo not drawn) | 6.12 |
| COc1ccccc1C(=O)N1CCN(C(=O)COc2cccc(C)c2)CC1 | -12.2 |
| COc1ccc(CCNC(=O)Cn2cc(C(F)(F)F)cc(Cl)c2=O)cc1 | 6.98 |
| Cc1cc(C)c(C#N)c(SCSCc2ccccc2)n1 | -7.12 |
| C/C(=N\Nc1ccc(S(=O)(=O)Nc2ccccc2)cc1[N+](=O)[O-])c1ccncc1 | 6.48 |
| O=C(/C=C/c1ccccc1)c1ccc2c3c(cccc13)CC2 | 4.3 |
| CCC(NC(=O)c1ccccc1NC(=O)c1ccco1)C(=O)NC1CCCCC1 (stereo not drawn) | -22.5 |
| Cc1occc1C(=O)N/N=C/c1ccc2c(c1)OCO2 | 8.07 |
| COC(=O)c1sccc1N/C=C(\C#N)S(=O)(=O)C(C)(C)C | 2.62 |
| Cc1ccccc1C(=O)NNC(=S)NC(=O)c1ccc(Cl)cc1Cl | 6.56 |
| Cc1cccc(N(CC(=O)NCCSCc2ccccc2)S(C)(=O)=O)c1 | 26.5 |
| Cc1ccc(N2C(=O)NC(=O)/C(=C\c3cccn3C(C)(C)C)C2=O)cc1 | 24.5 |
| CN(C(=O)COC(=O)c1ccc(=O)n(Cc2ccccc2)n1)C1CCCCC1 | -9.68 |
| CSc1ccccc1NC(=O)CN(C)C(=O)Cn1c(=O)oc2ccccc21 | 2.37 |
| C=CCc1ccccc1OCC(O)CN1CCN(c2ccccc2OC)CC1.Cl (stereo not drawn) | -75.2 |
| COc1ccc(C(CC(=O)c2ccccc2)CC(=O)c2ccccc2)cc1OC | -18.4 |
| COc1ccc(-c2c(C(F)(F)F)nn(C)c2NC(=O)CSCC(=O)O)cc1 | 23.9 |
| COc1cc(-c2nc(-c3ccc(NC(=O)c4ccc(Br)o4)cc3)no2)cc(OC)c1OC | 2.56 |
| Cc1ccc(C)c(N(C)C(=O)c2ccc3c(=O)n4c(nc3c2)CCCCC4)c1 | -7.68 |
| Cc1sc2ccccc2[n+]1CCC(C)S(=O)(=O)[O-] (stereo not drawn) | -4.04 |
| COc1ccc(C)cc1NC(=O)NNC(=O)c1ccoc1C | 21.3 |
| COCCn1nnnc1C(c1cccs1)N1CCN2CCCC2C1.Cl (stereo not drawn) | 7.3 |

| Structure (SMILES) | hERG current change (%, negative = inhibition) at 10uM [%] |
| --- | --- |
| O=C(c1ccc(Cl)c([N+](=O)[O-])c1)N1CCN(c2ccccc2)CC1 | -16.4 |
| Cc1cc(C)c2nc(N(CCN(C)C)C(=O)c3ccc4ccccc4c3)sc2c1.Cl | 11.6 |
| Cc1cc(N2CCN(C)CC2)nc2ccc(NC(=S)NCc3cccs3)cc12 | -56.3 |
| CSc1nc(C)cc(OCC(=O)N2CCOCC2)n1 | 6.14 |
| Cc1ccc(C(=O)O)cc1N=Cc1cc(Br)cc(Br)c1O | 16.8 |
| COc1ccc(NS(=O)(=O)c2ccc(N3CCCCC3)c(N)c2)cc1 | -0.652 |
| CCc1cc(-c2n[nH]c(=S)n2CC(C)C)cs1 | 1.12 |
| COC(=O)c1cccc([N+](=O)[O-])c1CS(=O)(=O)c1ccc(C)cc1 | 3.47 |
| CCCNC(=O)c1ccccc1SCc1c(C)noc1C | 21.9 |
| c1ccc(-c2cccc(-c3ccccc3)n2)cc1 | 18.4 |
| COc1ccc(OC)c(C(c2nnnn2CC2CCCO2)N2CCN(C)CC2)c1.Cl (stereo not drawn) | 7.06 |
| CS(=O)(=O)NN1C(=O)c2ccccc2NC1c1ccccc1F (stereo not drawn) | 7.61 |
| CCc1ccccc1NC(=O)CSc1nnc(Cn2nnc3ccccc32)n1C | 5.27 |
| Cc1nc(CSc2ccccc2)cc(=O)[nH]1 | 9.19 |
| COc1cc(NC(=O)CN2C(=O)COc3ccc(S(=O)(=O)N4CCCC4)cc32)cc(OC)c1 | -21.7 |
| CCOc1ccc(CN2CCNC(=O)C2CC(=O)O)cc1 (stereo not drawn) | 11.1 |
| CCOC(=O)c1c(NC(=O)C(C)OC(=O)c2ccc(NC(=O)CC#N)cc2)sc2c1CCCC2 (stereo not drawn) | 12.5 |
| COC(=O)c1cccc(-n2nnnc2SCC(=O)Nc2nc3c(s2)CCCC3)c1 | -0.926 |
| O=C(CN(c1ccc(F)cc1)S(=O)(=O)c1ccccc1)Nc1ccccc1C(=O)O | 14.5 |
| O=C(c1ccco1)N1CCN(C(=S)Nc2ccc(F)c(Cl)c2)CC1 | -71.9 |
| COC(=O)N/N=C/c1ccc([N+](=O)[O-])s1 | 6.86 |
| CCN(N=Nc1nonc1OC)c1nonc1OC | -2.77 |

| Structure (SMILES) | hERG current change (%, negative = inhibition) at 10uM [%] |
| --- | --- |
| COc1ccc(N2Cc3ccccc3C2=NC(=O)c2cncc(Br)c2)cc1 | -2.95 |
| O=C(CSc1ccc2ccccc2n1)c1ccccc1 | 12.8 |
| CCc1ccc(NC(=O)C2CCCN(S(=O)(=O)c3ccc4c(c3)CC(C)N4C(C)=O)C2)cc1 (stereo not drawn) | -16.4 |
| C=CCN(CC=C)CC(O)CN(c1cc([N+](=O)[O-])ccc1OC)S(=O)(=O)c1ccccc1 (stereo not drawn) | -10.7 |
| CC(Oc1ccccc1)C(=O)N1CCN=C1SCc1ccc(F)cc1 (stereo not drawn) | -15.3 |
| COc1ccc(C(=O)N2CCC(C(=O)Nc3ccccc3C)CC2)cc1OC | -3.88 |
| COc1ccccc1C1SCCN1C(=O)c1ccc([N+](=O)[O-])cc1 (stereo not drawn) | -38.7 |
| COc1ccc(C(=O)NNc2ccccc2)cc1OC | 0.464 |
| Cc1cc(C)cc(C(=O)NCC(=O)OCC(=O)c2c(N)n(C)c(=O)n(C)c2=O)c1 | 17.4 |
| CSc1n[nH]c(/N=C/c2oc(O)c3ccccc23)n1 | 17.6 |
| CC(=O)NCCN1C(=O)C2C3c4ccccc4C(c4ccccc43)C2C1=O (stereo not drawn) | 10.4 |
| O=C(Nc1ccccc1Cl)C1CCN(Cc2cnn(-c3ccccc3)c2-n2cccc2)CC1 | -24.9 |
| CCCCn1nc2cc(C(=O)NCCCCc3ccccc3)ccc2c1OCC | 3.17 |
| COc1ccccc1-c1noc(CCCC(=O)Nc2ccc(C(N)=O)cc2)n1 | 7.25 |
| COc1ccc(OCC(=O)N2N=C(C)CC2(O)C(F)(F)F)cc1 (stereo not drawn) | 19.6 |
| Cn1c(CO)cnc1SCc1ccc([N+](=O)[O-])cc1 | -4.26 |
| O=C(CSc1nnc(Cc2ccsc2)o1)c1ccccc1 | -16.7 |
| COc1cc2c(cc1OC)CN(C(=O)/C=C/c1cc(OC)c(OC)c(OC)c1)CC2 | 3.11 |
| Nc1nc2c(c3c1c(=O)oc1ccccc13)CCCCC2 | 7.95 |
| CC(C)c1ccc(S(=O)(=O)N2CCN(C(=O)c3ccco3)CC2)cc1 | -21.1 |
| Cc1ccccc1NC(=O)Cn1cnc2c(oc3nc4c(cc32)COC(C)(C)C4)c1=O | 1.57 |
